Reference: patent US20260216242A1, “ALPP-SPECIFIC VARIANT ANTIGEN BINDING MOLECULES” (ALMAC DISCOVERY LIMITED, priority 2022, published 2026)
Numbering of substitutions follows the chain as printed. Names may count otherwise.

B1: D10 E06-hFc (S239C T366Y/Y407T), [G4S]1 linker, MA-PEG4-vc-PAB-EDA-PNU159682 conjugate, #884 (Fc fusion, DAR 2.03)
chain 1: QVQLVESGGGLVQPGGSLRLSCAASGSIFSVNTMGWYRQAPGKQRDLVAVATSGGTIHYADSVKGRFTISRDNAKNTVYLQMNSLKPEDTAVYYCNLVVPYGMIAGDHDYWGQGTKVTVSSGGGGS[human IgG1 Fc with C220S S239C T366Y (EU numbers) not spelt out]
chain 2: QVHLVESGGGLVQAGGSLRLSCAASRRSFSEYAMGWFRQAPGKEREFVAAIGWSGVIEYADSVKGRFTISRDNAKDTVYLQMNSLKPEDTAVYYCAAGLGIRVVSQTPAYWGQGTQVTVSSGGGGS[human IgG1 Fc with C220S S239C Y407T (EU numbers) not spelt out]
modifications: here or on the partner: MA-PEG4-vc-PAB-EDA-PNU159682 on Cys of S239C (EU numbering)
B2: D10 F05-hFc (S239C T366Y/Y407T), [G4S]1 linker, MA-PEG4-vc-PAB-EDA-PNU159682 conjugate, #886 (Fc fusion, DAR 2.01)
chain 1: B1 chain 1
chain 2: QVQLVESGGGLVQAGGSLRLSCAASGRAFGDYNIGWFRQAPGKEREFVARRTWDGSSTRYDDSVKGRFTVSIDNAKNTAYLQMNSLKTEDTAVYYCAAGRYSRVRGWEYDYWGQGTQVTVSSGGGGS[human IgG1 Fc with C220S S239C Y407T (EU numbers) not spelt out]
modifications: here or on the partner: MA-PEG4-vc-PAB-EDA-PNU159682 on Cys of S239C (EU numbering)
B3: D10 E10-hFc (S239C T366Y/Y407T), [G4S]1 linker, MA-PEG4-vc-PAB-EDA-PNU159682 conjugate, #885 (Fc fusion, DAR 2.02)
chain 1: B1 chain 1
chain 2: B2 chain 2 with A24V, F29L, G30S, R51K, D73E, N74D, N84S, V104A
modifications: here or on the partner: MA-PEG4-vc-PAB-EDA-PNU159682 on Cys of S239C (EU numbering)
B4: D10-hFc (S239C) [G4S]3 conjugated to MC-vc-PAB-MMAE (Fc fusion)
chain: QVQLVESGGGLVQPGGSLRLSCAASGSIFSVNTMGWYRQAPGKQRDLVAVATSGGTIHYADSVKGRFTISRDNAKNTVYLQMNSLKPEDTAVYYCNLVVPYGMIAGDHDYWGQGTKVTVSSGGGGSGGGGSGGGGS[human IgG1 Fc with changes not spelt out]
modifications: here or on the partner: MC-vc-PAB-MMAE on Cys 239 (S239C, EU numbering); DAR 2.0
B5: D10-hFc (S239C)-MA-PEG4-vc-PAB-EDA-PNU159682 (Fc fusion)
chain: QVQLVESGGGLVQPGGSLRLSCAASGSIFSVNTMGWYRQAPGKQRDLVAVATSGGTIHYADSVKGRFTISRDNAKNTVYLQMNSLKPEDTAVYYCNLVVPYGMIAGDHDYWGQGTKVTVSSGGGGSGGGGSGGGGS[human IgG1 Fc with changes not spelt out]
modifications: here or on the partner: MA-PEG4-vc-PAB-EDA-PNU159682 on Cys 239 (S239C, EU numbering); DAR 2
B6: D10 linker Cys-hFc-vcPAB-MMAE (S442C) (Fc fusion)
chain: QVQLVESGGGLVQPGGSLRLSCAASGSIFSVNTMGWYRQAPGKQRDLVAVATSGGTIHYADSVKGRFTISRDNAKNTVYLQMNSLKPEDTAVYYCNLVVPYGMIAGDHDYWGQGTKVTVSSGCGGSGGGGSGGGGS[human IgG1 Fc with changes not spelt out]
modifications: here or on the partner: MC-vc-PAB-MMAE on the linker Cys and on Cys 442 (S442C, EU numbering); DAR 4.1
B7: E10-hFc (S239C) [G4S]3 conjugated to MC-vc-PAB-MMAE (Fc fusion)
chain: QVQLVESGGGLVQAGGSLRLSCAVSGRALSDYNIGWFRQAPGKEREFVARKTWDGSSTRYDDSVKGRFTVSIEDAKNTAYLQMSSLKTEDTAVYYCAAGRYSRARGWEYDYWGQGTQVTVSSGGGGSGGGGSGGGGS[human IgG1 Fc with changes not spelt out]
modifications: here or on the partner: MC-vc-PAB-MMAE on Cys 239 (S239C, EU numbering); DAR 1.94
B8: D10 F05-hFc (S239C F405L/K409R) conjugated to MC-vc-PAB-MMAE (Fc fusion, DAR 2)
chain 1: QVQLVESGGGLVQPGGSLRLSCAASGSIFSVNTMGWYRQAPGKQRDLVAVATSGGTIHYADSVKGRFTISRDNAKNTVYLQMNSLKPEDTAVYYCNLVVPYGMIAGDHDYWGQGTKVTVSSGGGGSGGGGSGGGGS[human IgG1 Fc with changes not spelt out]
chain 2: QVQLVESGGGLVQAGGSLRLSCAASGRAFGDYNIGWFRQAPGKEREFVARRTWDGSSTRYDDSVKGRFTVSIDNAKNTAYLQMNSLKTEDTAVYYCAAGRYSRVRGWEYDYWGQGTQVTVSSGGGGSGGGGSGGGGS[human IgG1 Fc with changes not spelt out]
modifications: here or on the partner: MC-vc-PAB-MMAE on Cys 239 (S239C, EU numbering)
B9: A06 E10-hFc (S239C F405L/K409R) conjugated to MC-vc-PAB-MMAE (Fc fusion, DAR 2)
chain 1: QVHLVESGGGLVQAGGSLRLSCAASGRTFLSMGWFRQAPGKEREFVAAISWTGGSTGYADSVKGRFTISRESDKETMYLQMNSLKPEDTAVYYCAARGDVYYGGDDATRYKYWGQGTQVTVSSGGGGSGGGGSGGGGS[human IgG1 Fc with changes not spelt out]
chain 2: QVQLVESGGGLVQAGGSLRLSCAVSGRALSDYNIGWFRQAPGKEREFVARKTWDGSSTRYDDSVKGRFTVSIEDAKNTAYLQMSSLKTEDTAVYYCAAGRYSRARGWEYDYWGQGTQVTVSSGGGGSGGGGSGGGGS[human IgG1 Fc with changes not spelt out]
modifications: here or on the partner: MC-vc-PAB-MMAE on Cys 239 (S239C, EU numbering)

How the values were obtained:
Experiment in all cases: cell-based or functional assay
[1] = molecular target: ALPP/ALPPL2 on ALPP/ALPPL2 positive cancer cells (MKN1, NCI-H1651, NCI-N87, Caov-3, HPAC)
[2] = molecular target: ALPP/ALPPL2 on ALPP/ALPPL2 positive cancer cells
[3] = molecular target: ALPP/ALPPL2 on ALPP/ALPPL2 positive cancer cells (MKN1, NCI-H1651, NCI-N87, HPAC)

| Binder | % viability remaining at 96 h, Caov-3 cells [1] [%] | % viability remaining at 96 h, HPAC cells [1] [%] | % viability remaining at 96 h, MKN1 cells [1] [%] | % viability remaining at 96 h, NCI-H1651 cells [1] [%] | % viability remaining at 96 h, NCI-N87 cells [1] [%] | IC50 at 96 h, cell-killing of Caov-3 cells [1] [nM] | IC50 at 96 h, cell-killing of HPAC cells [1] [nM] | IC50 at 96 h, cell-killing of MKN1 cells [1] [nM] | IC50 at 96 h, cell-killing of NCI-H1651 cells [1] [nM] | IC50 at 96 h, cell-killing of NCI-N87 cells [1] [nM] | IC50 @ 96 h (nM), cell-killing of NCI-H1651 cells (Cell Titre Glo) [2] [nM] | further results |
| --- | --- | --- | --- | --- | --- | --- | --- | --- | --- | --- | --- | --- |
| B1 | 26 | 9 | 3 | 8 | 12 | 0.41 | 1.3 | 0.41 | 0.19 | 0.86 |  |  |
| B2 | 30 | 7 | 4 | 9 | 12 | 0.69 | 0.84 | 0.3 | 0.16 | 0.39 |  |  |
| B3 | 27 | 9 | 4 | 8 | 12 | 0.58 | 1 | 0.29 | 0.18 | 0.88 |  |  |
| B4 |  |  |  |  |  |  |  |  |  |  | 50.2 |  |
| B5 |  |  |  |  |  |  |  |  |  |  |  | % viability remaining, HPAC cells [3]: 0%; % viability remaining, MKN1 cells [3]: 8.4%; % viability remaining, NCI-H1651 cells [3]: 10%; % viability remaining, NCI-N87 cells [3]: 0%; cell killing IC50 @ 96 h, HPAC cells [3]: 35.6 nM; cell killing IC50 @ 96 h, MKN1 cells [3]: 0.25 nM; cell killing IC50 @ 96 h, NCI-H1651 cells [3]: 13.8 nM; cell killing IC50 @ 96 h, NCI-N87 cells [3]: 35.1 nM |
| B6 |  |  |  |  |  |  |  |  |  |  |  | % viability remaining, NCI-N87 cells [3]: 38.7%; cell killing IC50 @ 96 h, NCI-N87 cells [3]: 1.6 nM |
| B7 |  |  |  |  |  |  |  |  |  |  | 154 |  |
| B8 |  |  |  |  |  |  |  |  |  |  | 3 |  |
| B9 |  |  |  |  |  |  |  |  |  |  | 3 |  |
